# Screen size: about 310,000 compounds; about 14,000 (4.5%) showed an effect of 50% or more. The effect is printed as a negative number. The list shows a part of the results.
# Target: human ether-à-go-go-related gene (hERG) potassium channel (human, UniProt Q12809)
# Assay: primary screen, population patch clamp on CHO cells stably expressing hERG
# 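Further: peak tail current of the secondary pulse compared with the same well before compound.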
# human ether-à-go-go-related gene (hERG) potassium channel, sequence (Q12809 whole entry, looked up): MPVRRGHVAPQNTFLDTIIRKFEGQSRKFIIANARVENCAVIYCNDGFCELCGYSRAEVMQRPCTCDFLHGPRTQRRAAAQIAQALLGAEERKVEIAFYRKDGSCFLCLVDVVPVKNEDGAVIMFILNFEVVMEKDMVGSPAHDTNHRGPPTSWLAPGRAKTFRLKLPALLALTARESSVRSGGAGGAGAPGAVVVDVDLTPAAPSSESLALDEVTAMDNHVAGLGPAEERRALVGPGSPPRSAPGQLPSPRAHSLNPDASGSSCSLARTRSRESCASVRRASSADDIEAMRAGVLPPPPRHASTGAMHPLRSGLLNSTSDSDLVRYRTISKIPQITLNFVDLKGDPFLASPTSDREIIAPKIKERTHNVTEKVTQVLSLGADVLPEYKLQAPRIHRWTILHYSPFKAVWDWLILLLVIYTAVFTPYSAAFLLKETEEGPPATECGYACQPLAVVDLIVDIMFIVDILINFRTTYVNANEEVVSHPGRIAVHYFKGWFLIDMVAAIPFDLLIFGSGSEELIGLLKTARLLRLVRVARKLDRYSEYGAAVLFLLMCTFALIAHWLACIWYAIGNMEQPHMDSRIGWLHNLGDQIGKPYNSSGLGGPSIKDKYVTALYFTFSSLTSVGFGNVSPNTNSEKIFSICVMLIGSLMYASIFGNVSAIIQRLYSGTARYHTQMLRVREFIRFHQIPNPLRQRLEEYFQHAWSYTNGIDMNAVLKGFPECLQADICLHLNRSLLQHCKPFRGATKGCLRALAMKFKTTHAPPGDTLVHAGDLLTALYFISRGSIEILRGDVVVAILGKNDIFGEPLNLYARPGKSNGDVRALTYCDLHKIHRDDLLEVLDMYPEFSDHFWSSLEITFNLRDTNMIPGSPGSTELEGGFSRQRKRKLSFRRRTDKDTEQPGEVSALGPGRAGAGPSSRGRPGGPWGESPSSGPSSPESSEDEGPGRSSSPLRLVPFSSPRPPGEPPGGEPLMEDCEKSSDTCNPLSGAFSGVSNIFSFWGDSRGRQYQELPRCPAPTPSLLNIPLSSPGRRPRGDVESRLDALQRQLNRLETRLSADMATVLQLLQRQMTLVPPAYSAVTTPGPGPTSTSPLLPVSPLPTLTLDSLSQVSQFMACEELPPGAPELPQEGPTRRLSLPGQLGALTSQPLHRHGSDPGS
row,SMILES,"hERG current change (%, negative = inhibition) at 10uM [%]"
1,CN(C(=O)COC(=O)/C=C/c1ccc(Cl)c(Cl)c1)c1c(N)n(Cc2ccccc2)c(=O)[nH]c1=O,17.2
2,NS(=O)(=O)c1ccc(NC(=S)NC(=O)/C=C/c2ccco2)cc1,15.2
3,COc1cccc(-c2cc(C(=O)N3CCN(c4ncccn4)CC3)c3ccccc3n2)c1,-8.78
4,O=S(=O)(c1ccc(F)c(F)c1)N1CCN(c2ncccn2)CC1,13.7
5,COc1cccc(C(=O)CN2C(=O)C(C)(C)Oc3ccc(C(=O)N4CCOCC4)cc32)c1,5.13
6,CCCNC(=O)c1c(CSc2ccccc2)noc1C(=O)NCc1ccccc1,0.00178
7,CCC(C(=O)N1CC2(C)CC1CC(C)(C)C2)N1C(=O)c2ccccc2C1=O (stereo not drawn),-18.3
8,CN1CC(=O)N=C1N.Cl,-50.1
9,Cc1cccc(C)c1Nc1nc2ccccc2o1,-21.9
10,C=CCN(c1ccccc1)S(=O)(=O)c1cccc(C(=O)N(CC)CC(=O)Nc2c(F)cccc2F)c1,11.3
11,c1ccc2c(COn3nnc4ccccc43)cccc2c1,-23.2
12,Nc1ccc(CNC(=O)OCC2c3ccccc3-c3ccccc32)cc1,1.51
13,CC(C)c1ccc2oc(-c3cc(N)ccc3O)nc2c1,3.92
14,COc1cc(/C=N/Nc2nc(N3CCCC3)nc(N3CCCC3)n2)ccc1O,-37.7
15,COc1ccc(CNCCC2(O)CC(C)N(C)CC2C)cc1OC.Cl (stereo not drawn),6.43
16,COc1ccc(NC(=O)Nc2ccc(F)cc2F)c(C)c1,11.7
17,CC1(C)CC(=O)/C(=C(\O)c2ccccc2)C(=NCCc2ccccc2)C1,-5.55
18,CC(C)c1ccc(NC(=O)CCNC(=O)Cn2cnc3ccccc3c2=O)cc1,22.9
19,C/C=C/c1ccc(OCCCCN2CC(C)CC(C)C2)c(OC)c1.O=C(O)C(=O)O (stereo not drawn),-81.6
20,S=c1[nH]nc(-c2ccc(Cl)cc2)n1/N=C/C=C/c1ccco1,15.3
21,Cc1cc(N=CC2=C(O)CCCC2=O)no1,5.28
22,Cc1ccc(S(=O)(=O)N2CCN(C(=O)c3n[nH]c4ccccc34)CC2)cc1,0.636
23,CCCOC1(NC(=O)c2ccccc2)C(C)=CC(=O)C=C1C,-16.7
24,C[C@H](NC(=O)c1cc2c(cn1)[nH]c1ccccc12)C(=O)O,18.4
25,COc1ccc(N2CCN(S(=O)(=O)CCNC(=O)/C=C/c3ccc4c(c3)OCO4)CC2)cc1,9.18
26,O=C(CCn1c(=O)oc2ccccc21)N1CCOCC1,18.7
27,CCO[C@@H]1OC(C(=O)N2CCN(Cc3ccc4c(c3)OCO4)CC2)=C[C@H](c2csc3ccccc23)[C@H]1CCCO,-7.31

row,SMILES,"hERG current change (%, negative = inhibition) at 10uM [%]"
1,CCOc1ccc(S(=O)(=O)NCCC(=O)NCC(c2cccs2)N2CCOCC2)cc1 (stereo not drawn),21.2
2,Cc1cc(C(=O)N[C@@H](c2ccccc2)[C@]2(C)C[C@H]2[C@@H](C)C(=O)Nc2ccc3ccccc3c2)no1,2.67
3,COC1=C/C(=C/c2c(N)n3nc(CC(=O)N4CCCCC4)sc3nc2=O)C=CC1=O,11
4,O=C(O)COc1ccccc1/C=N/NC(=O)CSc1nnc(-c2ccc(Cl)cc2)n1C1CCCCC1,11.9
5,C=CCc1c(C)nc2c(C)cccc2c1SC(=N)N.Cl,2.29
6,CC(C)(C)OC(=O)NCCc1nnc(SCc2ccc(Cl)cc2)o1,-43.2
7,CCOC(=O)N1CCC(NC(=O)CCc2cn(C)c3ccccc23)CC1,-16
8,COc1cc(CC(NC(C)=O)C(=O)NC2CCN(c3nc(C)cc(C)c3C#N)CC2)cc(OC)c1 (stereo not drawn),-4.62
9,CC1=C([N+](=O)[O-])C(c2ccc(O)c(O)c2)NC(=O)N1 (stereo not drawn),11.7
10,Cc1cc(N/N=C/c2c(O)ccc3ccccc23)nc(-c2ccccc2O)n1,-3.98
11,O=c1c(/C=N/O)coc2ccc(Cl)cc12,18.4
12,C=CCn1c(=O)[nH]c2cc(C(=O)N3CCN(c4cccc(Cl)c4)CC3)ccc2c1=O,-15.9
13,COc1ccc(N(C)C(=O)CCC(=O)Nc2ccc3nc(N4CCOCC4)cc(C)c3c2)c(OC)c1,-22.7
14,Cn1c(=O)c2c(nc(NCCNC(=O)c3ccco3)n2Cc2ccc(F)cc2)n(C)c1=O,-5.2
15,CCOC(=O)c1c(CN2CCCCC2)n(C)c2cc(Br)c(OC)cc12,-31.7
16,COc1ccc(/C=N/n2c(SC)nnc(C(C)(C)C)c2=O)cc1,16.2
17,Cc1ccc(-c2nnc(SCC(=O)n3c4c(c5ccccc53)CCCC4)o2)cc1,6.39
18,O=C(NNS(=O)(=O)c1ccccc1F)c1sccc1-n1cccc1,6.12
19,C/C(=N\Nc1ccccc1)c1c(O)n(C)c(=O)n(C)c1=O,6.62
20,Br.O=C(CN1C2=NCCN2c2ccccc21)c1ccc(Br)cc1,-67.6
21,Cc1ccc(Cl)cc1-n1c(SCC(=O)NCCC2=CCCCC2)nc2n[nH]c(C)c2c1=N,-11.7
22,CC1(C)CC(=O)C=C(Nc2ccccc2NC(=O)c2cnccn2)C1,-64.7
23,Cc1ccc(NC(=O)C2OCCc3ccccc32)cc1 (stereo not drawn),1.37
24,CCCn1c(=N)n(CC(O)COc2cccc(C)c2)c2ccccc21.Cl (stereo not drawn),-71.3
25,CCn1nc(C)c(CN2CCC(C(=O)Nc3cccc(-c4cccc(F)c4)c3)CC2)c1C,-67
26,CN(CC(=O)Nc1cccc(F)c1)C(=O)c1ccc(COc2ccccc2)cc1,-2.76
27,CCOc1cc(/C=C2/N=C(C)C(C(=O)OC)=C2O)ccc1O,-2.64

# — PMC4336329 (PLoS ONE, 2015)
